Measurements published in the supplement of paper PMC12217912.
The list shows a part of the results. The full chains were built here from the parent and the listed change. Inactive controls read about 0.05.

B1: TEV protease; numbered along this chain (parent)
chain: MGESLFKGPRDYNPISSSICHLTNESDGHTTSLYGIGFGPFIITNKHLFRRNNGTLVVQSLHGVFKVKDTTTLQQHLVDGRDMIIIRMPKDFPPFPQKLKFREPQREERICLVTTNFQTKSMSSMVSDTSCTFPSGDGIFWKHWIQTKDGQCGSPLVSTRDGFIVGIHSASNFTNTNNYFTSVPKNFMELLTNQEAQQWVSGWRLNADSVLWGGHKVFMVKPEEPFQPVKEATQL

Variants of: B1
Experiment: raw area under fraction-flipped curve 0-4 h after induction (AUC4h, not background-subtracted), DNA-recorder readout of cleavage of the substrate (dimensionless); higher = more cleavage of the substrate by the protease variant
Details: temperature: 34 °C; time window: 0-4 h after rhamnose induction
Experimental: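 In vivo DNA recorder in E. coli TOP10(DE3) ΔrhaA at 34 °C. Each TEVp single-site mutant (parent TEVp 0) is paired with a single-site variant of the 7-mer TEVs (canonical ENLYFQ|S). The substrate sits between flexible linkers in a Bxb1-sfGFP-TEVs-SsrA fusion, so cleavage stabilises Bxb1 and speeds flipping of a recombination array, read by NGS. The value is the raw area under the fraction-flipped curve over 0-4 h after rhamnose induction (AUC4h), with ≥20 reads per time point. It is not background-subtracted; inactive controls average about 0.047.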
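Also: Bxb1 expression induced with 0.2% (w/v) L-rhamnose at OD600 near 0.5, cultures sampled hourly, flipped fraction per protease–substrate barcode pair counted by paired-end Illumina sequencing.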

| Variant | area with substrate ENLYAQS | area with substrate ENLYDQS | area with substrate ENLYEQS | area with substrate ENLYGQS | area with substrate ENLYHQS | area with substrate ENLYIQS | area with substrate ENLYKQS | area with substrate ENLYMQS | area with substrate ENLYNQS | area with substrate ENLYPQS | area with substrate ENLYQQS | area with substrate ENLYRQS | area with substrate ENLYSQS | area with substrate ENLYTQS | area with substrate ENLYVQS | area with substrate ENLYWQS | area with substrate ENLYCQS | area with substrate ENLYYQS | area with substrate ENLYLQS |
| --- | --- | --- | --- | --- | --- | --- | --- | --- | --- | --- | --- | --- | --- | --- | --- | --- | --- | --- | --- |
| G202Q | 0.0615 | 0.0541 | 0.0676 | 0.0622 | 0.0677 | 0.0798 | 0.05 | 0.0694 | 0.0627 | 0.0593 | 0.0678 | 0.0657 | 0.0561 | 0.0398 | 0.0651 | 0.0551 |  |  |  |
| I84E | 0.0387 | 0.0536 | 0.0563 | 0.0594 | 0.0544 | 0.0541 | 0.0592 | 0.0564 | 0.0604 | 0.0463 | 0.0576 | 0.0567 | 0.0575 |  | 0.0659 | 0.0545 | 0.0557 | 0.0484 |  |
| R50H | 0.0536 | 0.0569 | 0.0679 |  | 0.0582 |  | 0.0514 | 0.106 |  | 0.0762 |  | 0.0673 |  | 0.0887 |  | 0.117 |  |  | 0.0814 |
| F41I | 0.0653 | 0.0609 | 0.0641 | 0.072 | 0.0566 | 0.105 | 0.0594 | 0.0694 | 0.0673 | 0.0676 | 0.0586 | 0.0625 |  |  | 0.116 | 0.075 |  | 0.0457 | 0.0654 |
| T132A | 0.103 | 0.06 | 0.0601 | 0.0591 | 0.0596 | 0.166 | 0.0662 | 0.093 | 0.0741 |  | 0.0594 | 0.0624 | 0.0713 | 0.0866 |  | 0.0834 |  | 0.058 |  |
| E3Q | 0.0707 | 0.057 | 0.0769 | 0.0592 | 0.0805 | 0.121 |  |  | 0.0733 | 0.0755 | 0.0635 | 0.0701 | 0.0866 |  | 0.103 |  |  | 0.0681 |  |
| S209V | 0.0861 |  | 0.0707 | 0.0525 | 0.112 |  | 0.0617 |  | 0.0669 | 0.0522 |  | 0.0649 | 0.0904 | 0.0506 |  | 0.0946 |  |  | 0.126 |
| G166D | 0.0433 | 0.0575 | 0.0594 | 0.0467 | 0.0468 | 0.048 | 0.071 | 0.048 | 0.0572 | 0.0518 | 0.0589 | 0.0546 | 0.0395 |  | 0.0436 | 0.0484 | 0.0673 | 0.0341 |  |
| G166A | 0.0557 |  | 0.0536 | 0.0492 | 0.0511 | 0.0606 | 0.0469 | 0.0649 | 0.0486 | 0.046 | 0.0632 | 0.0513 | 0.0567 |  | 0.0517 | 0.0349 | 0.0519 | 0.0451 |  |
| I85R | 0.0611 |  | 0.0627 |  | 0.059 | 0.0588 | 0.068 | 0.0561 | 0.0623 | 0.054 | 0.0651 | 0.0619 |  |  | 0.0616 | 0.06 |  |  | 0.0843 |
| F133K | 0.0782 | 0.0633 | 0.0571 | 0.0669 | 0.0484 |  | 0.0468 | 0.0874 |  |  | 0.0704 | 0.0709 | 0.08 | 0.0938 | 0.128 | 0.0907 |  |  | 0.0903 |
| V229C | 0.0875 | 0.0595 | 0.0616 | 0.0724 | 0.0696 |  | 0.0523 | 0.096 | 0.0574 | 0.0819 | 0.0664 |  | 0.0663 |  | 0.136 | 0.0712 | 0.102 |  | 0.104 |
